Reference: the supplement of paper PMC12355420
Where a name gives a salt, the structure may show the parent alone. Some of the results follow. Most values come without repeats; read them as rough.

What follows are compounds tested on HeLa VPS33A KO + NLuc-VPS33A R498W (assay: relative mutant VPS33A R498W amount (NanoLuc luminescence) vs DMSO (fraction of DMSO); HeLa model of a glycosaminoglycan (GAG) storage disease; KI is knock-in and KO knock-out; SDC1 is syndecan 1; higher = higher mutant VPS33A level). Conditions: 50 µM; 24 h.
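Note: screen of an FDA-approved drug library, NanoLuc luminescence read after lysing the treated cells, taken as a measure of mutant VPS33A protein stability.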

Compound | relative mutant VPS33A R498W amount
CCC1(c2cccc(O)c2)CCCCN(C)C1 (stereo unspecified) [Meptazinol HCl] | 1.55
COc1cc2c(cc1OC)C1CC(=O)C(CC(C)C)CN1CC2 (stereo unspecified) [Tetrabenazine] | 0.755
CN(C)C(=O)Oc1cccc([N+](C)(C)C)c1 [Neostigmine Bromide] | 1.17
COc1ccc(C(=O)N2CCCC2=O)cc1 [Aniracetam] | 1.15
CC(C)N(CCNC(=O)CN1CCCC1=O)C(C)C [Pramiracetam] | 1.41
COc1ccc2[nH]cc(CCN)c2c1 [5-Methoxytryptamine] | 1.04
COC1=C[C@@H]2[C@@H]3Cc4ccc(OC)c(O)c4[C@]2(CCN3C)CC1=O [Sinomenine Hydrochloride] | 0.769
CCC1(c2ccc(N)cc2)CCC(=O)NC1=O (stereo unspecified) [Aminoglutethimide] | 1.36
CC(C)C[C@H]1C(=O)N2CCC[C@H]2[C@]2(O)O[C@](NC(=O)[C@@H]3C=C4c5cccc6[nH]c(Br)c(c56)C[C@H]4N(C)C3)(C(C)C)C(=O)N12 [Bromocriptine mesylate] | 0.481
C=CC[C@]1(O)CC[C@H]2[C@@H]3CCC4=CC(=O)CCC4=C3C=C[C@@]21C [Altrenogest] | 1.1
CN1[C@H]2C[C@H](OC(=O)[C@H](CO)c3ccccc3)C[C@@H]1[C@@H](O)C2 [Anisodamine] | 1.19
